Results: PubChem BioAssay AID1963576 (National Center for Advancing Translational Sciences (NCATS), 2024)
In all, about 46,000 compounds went through this assay and about 60 (0.1%) were called active. Roughly 3% stayed inconclusive and do not appear here. Calls follow the shape of the dose curve; as a rule, active = well fitted inhibition curve with a large enough effect; inconclusive = small, poorly fitted or top-dose-only effect; inactive = no such curve, though single readings can be large or run the other way. The list shows a part of the results.

test: Primary qHTS assay for Inhibitors of ovarian cancer metastasis using an organotypic tumor microenvironment (TME) model.; also: nearly all actives have a fitted effect of over 65% in size;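 as to activity change, negative = inhibition: plate controls were DMSO wells for no effect and tomatine positive control wells for full effect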; conditions: SKOV3ip1-GFP adhesion/invasion on 3D omental model, fluorescence; series mostly up to 45.8 µM; activity change, negative = inhibition: at the top concentration
Summary of the method: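 Primary human omental fibroblast/mesothelial 3D culture pre-formed 48 h. SKOV3ip1-GFP cells added with compounds (0.36-46 umol/L), incubated 2 h RT/16 h 37 C, fixed; GFP cells quantified at 488/509 nm.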

Activity change, negative = inhibition, inactive:
CCOc1ccccc1CNC(=O)C1CCN(c2nn3cc(-c4ccc(F)cc4)nc3s2)CC1 6.6%
Cc1cccc(N2CCN(C(=O)Nc3cn(CC(C)C)c(=O)c4ccccc34)CC2)c1C 56.3%
COc1ccccc1Cc1nc2ccccc2nc1SCC(=O)N(C)c1ccc(F)cc1 0.908%
CCOc1ccccc1N(CC(=O)NCCSc1ccccc1)S(=O)(=O)c1ccccc1 -9.95%
N#C/C(=C\c1ccc(Cl)cc1Cl)c1nc(-c2cccc(Cl)c2)cs1 6.39%
Cc1ccc(C(=O)Nc2cc3nn(-c4ccccc4)nc3cc2Cl)c(C)c1 -9.89%
CC(C)c1ccc(CN(Cc2ccco2)c2cnc(S(C)(=O)=O)nc2C(=O)Nc2ccc(F)cc2)cc1 6.52%
CCCCN(C)C(=O)C1CCCN(c2ncnc3onc(C)c23)C1 (stereo not given) 0.658%
CCc1nn(CC(=O)NCCCN(CC(C)C)CC(C)C)c(=O)c2cc3sc(C)cc3n12 -5.71%
O=C(c1ccc2c(=O)n(CCc3ccccc3)c(=O)[nH]c2c1)N1CCN(c2ccc(F)cc2)CC1 5.85%
COc1ccc(N2CCN(C(=O)C3CCN(S(=O)(=O)c4cccs4)CC3)CC2)cc1 2.82%
O=C(CC1N=C2c3ccccc3N=C(SCc3ccc(Cl)cc3)N2C1=O)NCc1cccs1 (stereo not given) 10.2%
CC(=O)O[C@]1(C(C)=O)CC[C@H]2[C@@H]3C=C(C)C4=CC(=O)CC[C@]4(C)[C@@H]3CC[C@@]21C 1.24%
Cc1ccc(CN2CCSc3ccc(C(=O)N4CCN(c5ccccc5)CC4)cc32)cc1 -9.79%
Cc1ccc2c(c1)c1c(c(=O)n(-c3cccc(Cl)c3)c(=O)n1CC(=O)Nc1c(C)cccc1C)n2C -5.32%
Cc1ccc(O)c(C(CCN(C(C)C)C(C)C)c2ccccc2)c1 (stereo not given) -13.1%
O=c1c2cc3c(cc2n(Cc2ccc(Cl)cc2)c(=O)n1Cc1nc(-c2ccccc2)no1)OCO3 0.323%
Cc1nc(-n2nc(C)c(Cc3ccccc3Cl)c2C)sc1C(=O)Nc1ccccc1F -3.09%
Cc1ccc(C)c(CN2CCCN(Cc3ccc(F)cc3)S2(=O)=O)c1 0.891%
COc1ccc(CNC(=O)Cc2c(C)c3cc4c(C)coc4c(C)c3oc2=O)cc1 -14.7%
Cc1ccc(-c2noc(C(C)NS(=O)(=O)c3ccc(C)cc3)n2)cc1 (stereo not given) 1.76%
CN1C(=O)Cc2cc(S(=O)(=O)N3CCN(c4ccccc4F)CC3)ccc21 3.63%
O=C(Nc1cccc(Cl)c1)c1cnc2sc(N3CCCC3)nn2c1=O -6.78%
COc1ccccc1NC(=O)C(=O)NCC(c1ccc2c(c1)OCO2)N1CCOCC1 (stereo not given) -4.83%
COc1ccccc1/C=C/c1nc2ccccc2n1C(C)C 3.15%
Cc1ccc2nc3c(cc(C(=O)NCC4CCCO4)c(=N)n3C(C)C)c(=O)n2c1 (stereo not given) 12.6%
CC(C)c1ccc(C2=CC(c3ccc(C(C)C)cc3)n3nnnc3N2)cc1 (stereo not given) -3.81%
CC(=O)c1ccc(S(=O)(=O)N2CCn3cccc3C2c2ccc(C)cc2)cc1 (stereo not given) 0.969%
CSc1ccc(CCNC(=O)c2cnc3c(C)cccn3c2=O)cc1 -6.29%
CCn1c(C)c(C2N3CC4(C)CN2CC(C)(C3)C4=O)c2ccccc21 (stereo not given) 12.5%
CC(=O)c1cc2c(cc1N/C(=N/S(=O)(=O)c1ccc(Cl)cc1)c1ccc(F)cc1)OCO2 16.7%
Cc1ccc(C)c(CN2C(=O)c3ccccc3S(=O)(=O)c3ccc(C(=O)N(C)C4CCCCC4)cc32)c1 -5.42%
CC(=O)c1cccc(-n2c(=O)c3c4c(sc3n(CC(=O)c3ccccc3)c2=O)CN(C(C)=O)CC4)c1 -15.4%
Cc1nn(-c2ccccc2)c(OC(=O)C(C)C)c1Sc1ccc(Cl)cc1 4.5%
Cc1ccc(CNC(=O)CCCCCn2c(=O)[nH]c3ccccc3c2=O)cc1 -0.167%
Cc1ccc(C)c(N2CCN(C(=O)c3ccc(NC(=O)c4nsc5ccccc45)cc3)CC2)c1 -6.21%
CCc1ccccc1NC(=O)Nc1c[nH]c(=O)[nH]c1=O -2.42%
CC(C)(C)c1ccc(NC(=O)C2CCCN(c3cnccn3)C2)cc1 (stereo not given) -7.79%
CCOc1ccc(N2CC(NC(=O)CCc3ccccc3)CC2=O)cc1 (stereo not given) 0.442%
Cc1cnc(-c2cc(N3CCN(C(=O)CCS(C)(=O)=O)CC3)ncc2Cl)c(C)c1 16.6%
Cc1ccccc1-c1nc(CN2CCC(C(=O)NCc3ccccc3Cl)CC2)c(C)o1 2.61%
COC(=O)C(NC(=O)CC(C)C)(Nc1nc2c(s1)CCCC2)C(F)(F)F (stereo not given) -10.5%
COC(=O)c1ccc(NC(=O)CCS(=O)(=O)c2ccc(Br)cc2)cc1 7.65%
CC(=O)c1cc2c(cc1N/C(=N/S(=O)(=O)c1ccc(C)cc1)c1ccccc1)OCO2 -20.1%
COc1ccc(NC(=O)CSc2nc(-c3cccs3)cc(C(F)(F)F)n2)cc1OC 1.89%
COc1ccc(-c2cc(C(=O)O)n(Cc3ccccc3)n2)cc1 -5.85%
COc1ccc(C(=O)NC2(C(F)(F)F)C(=O)NC(C)=C2C#N)cc1OC (stereo not given) 6.04%
CN1CCc2c(c3ccccc3n2Cc2ccc(C(=O)NO)cc2)C1 -10.4%
CCOc1ccc(CNCc2c(C(=O)O)n(Cc3ccccc3F)c3cc(OC)ccc23)cc1 2.43%
CCCCOc1ccc(C(=O)NCCS(=O)(=O)N2CCN(c3ccc(F)cc3)CC2)cc1 -0.245%
CCc1cnc2c(c1SCC(=O)N1CCCCC1)c(=O)n(C)c(=O)n2C 6.41%
Cc1ccc(C)c(NC(=O)CN2C(=O)CCc3ccccc32)c1 -7.26%
COc1ccc(CN(C(=O)COc2ccccc2OC)C2CCS(=O)(=O)C2)cc1 (stereo not given) 1.11%
Cc1cccc(OC(C)C(=O)Nc2ncn[nH]2)c1 (stereo not given) 2.74%
CCCCN(CC)CCCNC(=O)c1sc2nc(C)cc(C)c2c1-n1cccc1 5.25%
CCOC(=O)C1CCCN(S(=O)(=O)c2ccc(F)c(C(=O)Nc3ccc(F)c(F)c3)c2)C1 (stereo not given) -0.104%
Cc1cccc2nc(-c3ccco3)c(Nc3ccc4c(c3)OCO4)n12 21.2%
CCN(CC)c1cc(C)c2cc(NC(=O)c3cccc(OC)c3)ccc2n1 -6.58%
COc1ccc(CNC(=O)c2cc(-c3ccc(OC)cc3)on2)cc1 -3.43%
Cc1nc(SC(C)C(=O)Nc2ccccc2C)cc(-c2ccccc2)n1 (stereo not given) 3.88%
Cc1ccc(-n2nnnc2CNC(=O)C(C)(C)C)cc1C -7.86%
Cc1ccc(NC(=O)CN(C)S(=O)(=O)c2ccc3c(c2)n(C)c(=O)c(=O)n3C)cc1C -3.67%
Cc1ccccc1CNC(=O)c1cnc2sc(N3CCOCC3)nn2c1=O -2.74%
Cc1ccc(C)c(OCCn2c(-c3ccc(Cl)cc3)nc3ccccc3c2=O)c1C 22.7%
CCn1c2ccccc2c2nnc(SCC(=O)O)nc21 -4.16%
Cc1ccccc1C(=O)c1cccn1CC(=O)NCc1ccccc1 8.95%
CCOc1ccc(CCNC(=O)Cn2nc(C)n3c(cc4occc43)c2=O)cc1OCC 86.9%
CCOC(=O)N[C@@H]1CC[C@@H]2[C@@H](C1)C[C@H]1C(=O)O[C@H](C)[C@H]1[C@@H]2C=Cc1ccc(-c2cccc(F)c2)cn1 1.1%
COc1ccc(CNC(=O)CSc2nc(-c3ccc(OC)cc3)cc(C(F)(F)F)n2)cc1 5.82%
COc1cccc(-c2cc(C(=O)Nc3cc(Cl)ccc3O)on2)c1 -3.77%
Cc1ccc(CCNC(=O)CCCn2nc(C)c3c(C)n(-c4ccccc4)nc3c2=O)cc1 6.21%
CC(=O)Nc1ccc(S(=O)(=O)N2CCC(n3c(C(F)(F)F)nc4cccnc43)CC2)cc1 1.41%

outcome, inactive:
COc1ccccc1N1CCN(C(=O)Cn2cnc3onc(-c4ccc(F)cc4)c3c2=O)CC1
COc1cccc(N2CC(NC(=O)c3ccco3)CC2=O)c1 (stereo not given)
CCOc1ccc(C(=O)Nc2cccc(-c3nc4cc(Cl)cc(Cl)c4o3)c2)cc1
Cc1nn(-c2ccccc2)c2c1N(CC(=O)N1CCN(c3cccc(Cl)c3)CC1)C(=O)CS2
COc1ccc(Cn2c(=O)c3oc4ccccc4c3n(Cc3cccc(C(F)(F)F)c3)c2=O)cc1
CCOC(=O)c1ccccc1NC(=O)CSc1nc2cn(CC)nc2c(=O)n1Cc1ccc(Cl)cc1
Cc1ccc(-n2c(Cc3ccccc3)nnc2SCc2nc(-c3cccs3)no2)cc1
COc1ccc(Cl)cc1NC(=O)Cc1ccc(NC(=O)N2CCCCc3ccccc32)cc1
CCOC(=O)Cn1c(=O)n(CC2CCCO2)c2nc(-c3ccc(C)cc3)nc(C(N)=O)c21 (stereo not given)
CCc1nnc(NC(=O)CSc2nccn2-c2ccc(OC)cc2)s1
Cc1nc(C)c(-c2ccc(SCC(=O)Nc3ccc(Br)cc3)nn2)s1
CC1CCCN(CCCNC(=O)c2ccc3c(c2)N(Cc2ccccc2F)C(=O)c2ccccc2S3(=O)=O)C1 (stereo not given)
Cc1ccc(/C=C/c2onc(C)c2S(=O)(=O)N2CCC(C(=O)Nc3ccc(C)c(N(C)C)c3)CC2)cc1
COc1cc(C(=O)Oc2c(Sc3ccccc3)c(C)nn2-c2ccccc2)cc(OC)c1OC
CCOC(=O)c1c(NC(=O)/C=C/c2ccc(OCC)cc2)sc(C)c1C
Cc1cc(C)c(NC(=O)Cn2c(=O)n(CC(=O)NCc3ccccc3Cl)c(=O)c3sccc32)c(C)c1
O=C(CSc1nc2ccccc2nc1Cc1ccccc1)NCc1ccccc1Cl
CCC(=O)N1CCc2cc(Br)cc(S(=O)(=O)N3CCC(C(=O)Nc4ccc(OC)cc4)CC3)c21
CCc1ccc(NC(=O)c2ccc3c(O)c(S(=O)(=O)c4ccc(Cl)cc4)c(=O)[nH]c3c2)cc1
Cc1ccc(-c2nc3c4ccccc4n(CC(=O)N4CCN(c5ccccc5F)CC4)c(=O)n3n2)cc1
CC(C)Oc1ccc(CNC(=O)c2cc3ccccn3n2)cc1
CCc1ccc(OCC(=O)Nc2cc3oc4ccccc4c3cc2OC)cc1
O=C(COc1ccccc1Cl)NCC1(N2CCOCC2)CCCCC1
